From the supplement of paper PMC10126150
Values marked as one replicate rest on one cluster of the flow cell; about a third of the high ones do not repeat.

System: ATP
Experiment: switch fluorescence ratio, 500 uM ATP over buffer (Cy3 cluster intensity, sum of 5 cycles each) (fold (ratio)); higher = stronger signal-on switching upon ATP binding; sequences stand for … in TCGTCGGCAGCGTCAGATGTGTATAAGAGACAGTTTTTTTTTTTTTTTTTTTTTTTTT…TC
Details: aptamer strand: ATP DNA aptamer (quencher-CACCTGGGGGAGTATTGCGGAGGAAGG + anchor), 100 nM annealed; ATP concentration: 500 uM; one replicate
Procedure, shortened: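 The quencher-labelled ATP aptamer, at 100 nM, was annealed to Cy3-labelled switching-strand clusters on a modified Illumina MiSeq flow-cell. The clusters were imaged in selection buffer, then after 15 min with 500 uM ATP at 22 °C, and this buffer/ATP cycle ran five times with NaOH stripping and re-annealing between runs. Per-cluster fluorescence ratios, summed target-cycle over summed buffer-cycle Cy3 intensity, were averaged per switch-domain sequence. Clusters outside 100-1000 RFU were excluded.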
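Also: ATP exposure 15 min at 22 °C before imaging.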

| Sequence | switch fluorescence ratio |
| --- | --- |
| TTAAGCAGTA | 1.01 |
| CTTAAACCGA | 1.15 |
| GTTTGAGTAG | 0.961 |
| ACAACGTAAA | 1.02 |
| GATAACGCAT | 2.28 |
| TTCCCATAAC | 1.23 |
| CAGGCGACCA | 1.05 |
| ACACTGGGTA | 1.02 |
| TTCCAGAGCT | 1.7 |
| TCCCTATAGT | 1.05 |
| CGTCTAAAGA | 1.04 |
| TTGCGTTCTA | 0.993 |
| CGGTGTGATA | 1.01 |
| AAAAATTCGC | 0.975 |
| GTGGGTCTAC | 0.983 |
| CTGTTCACAC | 0.947 |
| ATAACAGATT | 0.97 |
| ATATTATAAG | 1.03 |
| CTGATCTAG | 1.02 |
| CCCAAGCGTC | 1.49 |
| TTCCACCTTG | 1.18 |
| CACAGCCCCC | 1.14 |
| TAAACGTTCC | 1.46 |

| Sequence | switch fluorescence ratio |
| --- | --- |
| AGAAGATTAG | 0.988 |
| GGGGCTTCGG | 1.01 |
| GAGCGATGAC | 1.66 |
| TGGTCTAACA | 1 |
| GTTTCGTTAT | 1.01 |
| TACGCGTCGA | 1.04 |
| TACCGTGACT | 1.13 |
| TATACCACCG | 1.12 |
| TGTAATGTGC | 0.979 |
| GTCCGACTTT | 1.03 |
| GGTCTAAGTT | 0.933 |
| TCGCTCCCTT | 1.32 |
| CTGGAGCTAT | 4.31 |
| GTACGTTGTA | 0.981 |
| TATTGCCGAG | 1.02 |
| CCGAATTCCG | 1.07 |
| GTACTAGTTT | 0.993 |
| TTTGAGAGTC | 1.02 |
| CTTGTTACTA | 0.971 |
| ACATGTACAT | 1.05 |
| CGTCGACCGA | 0.981 |
| TTCAACCTGG | 1.05 |
| ATAGAAAAGA | 0.989 |

| Sequence | switch fluorescence ratio |
| --- | --- |
| CACGCTACA | 1.34 |
| GACCCAAGTC | 1.03 |
| TACCGTGACC | 1.23 |
| GTAAGGATTC | 0.991 |
| AATCTACGG | 1.07 |
| CACTTCTGGG | 0.995 |
| TCATGTATTC | 0.992 |
| GAAGTTTGGA | 0.956 |
| GCTCTTGTTG | 1.01 |
| CTGACTATTT | 1.04 |
| CAGGGATCTA | 0.985 |
| TGTATTGGA | 0.989 |
| CGTGCAGGGA | 0.979 |
| CGCGGGGTCT | 1.07 |
| TACATCTTAG | 1 |
| CGATTCTAGC | 1.03 |
| GGTCGTCCCA | 1.11 |
| CCTATTGTCT | 1.03 |
| TCGGGAATAT | 1.02 |
| GGCACCTTCG | 1.63 |
| ATAAACTCGC | 0.996 |
| CACTGCTCAA | 1.06 |
| ACCTGCGCGC | 1.17 |

| Sequence | switch fluorescence ratio |
| --- | --- |
| TAACGAGCCG | 1.11 |
| GGCACAGAT | 1.03 |
| CTAAGTTAGC | 1.01 |
| AATGTAGGAA | 0.994 |
| CTAAGCTATG | 1.01 |
| TTGGGTCACC | 0.943 |
| TGTTGTGGCT | 1.01 |
| AACGTGTTGC | 1.02 |
| AGTTTACACT | 1.03 |
| ACTCAAGAAC | 1.86 |
| GCGAGTATAC | 1.05 |
| TACGCTCCGA | 1.05 |
| AGAACGCAC | 1.9 |
| ACAAGAGAAT | 1.02 |
| GGAGACCTGC | 0.924 |
| GAAATGCCAT | 0.992 |
| TACGACACTG | 1.25 |
| GACAGGGAGC | 0.975 |
| CAATAGTCAT | 0.956 |
| GATTTATAGA | 1.01 |
| CCAACGGTGG | 1.06 |
| ATGCTAGACG | 1.07 |
| TTGTGTTATG | 0.915 |

| Sequence | switch fluorescence ratio |
| --- | --- |
| CAGGGGGACA | 1.01 |
| CCTGTTGAGG | 1.02 |
| CGGTTACGTA | 0.971 |
| AAAGAATAAG | 1 |
| ACTGTTCATT | 1.05 |
| TAGCGAGGGC | 1.04 |
| TGATTTTT | 1.03 |
| ATTCTTACGC | 0.968 |
| AGGCCGCCGT | 0.955 |
| GCTTGGCCGG | 0.987 |
| CACGTGGAGG | 1.06 |
| CGTACTGGCA | 1 |
| AGGCGAGATG | 1.01 |
| GCAGTCAAAC | 1.28 |
| GTAAAGAGAC | 0.973 |
| GATACTTACT | 1.27 |
| CAGCGCTTAT | 1.04 |
| AGTCTAGCCC | 1.01 |
| TCCAAGGACG | 1.1 |
| ATTTGAAAGA | 0.967 |
| TCATAGTTC | 0.999 |
| TTCTGCTAGC | 1.07 |
| TTGGTTTT | 1 |

| Sequence | switch fluorescence ratio |
| --- | --- |
| ATATATTATG | 0.999 |
| ATAGCGTCGT | 1.02 |
| ATGCAAACAG | 1.05 |
| GTACGAGCGT | 1.01 |
| ATTCATTCCG | 1.07 |
| GGCATGCAGC | 0.964 |
| CTGCTATTTC | 1.14 |
| CAAGAGGAT | 1.12 |
| CTGCGTTGTG | 0.988 |
| GCGCAGAACA | 0.959 |
| AAAGGTTCTA | 0.972 |
| ACTTCATAGG | 1.1 |
| TCGACAGTCG | 1.01 |
| ATTTGCCACG | 1.05 |
| TGGTTGGCCC | 1.01 |
| GTTATTTGCC | 0.978 |
| ATGCCGATTC | 1.01 |
| ACACCACGCG | 1.33 |
| ATCTATTACA | 1.01 |
| TGTCGTGCT | 1.02 |
| GGGGTGGCAT | 0.978 |
| CCTGCTAGCG | 1.1 |
| ATAGCGTTTT | 0.975 |

| Sequence | switch fluorescence ratio |
| --- | --- |
| CTATATGGTC | 1.01 |
| CCCAGAAGC | 1.03 |
| CAAAAATTAG | 0.991 |
| TACGGGCCCA | 0.997 |
| GTGAGAGCTC | 0.914 |
| GAAATACACG | 1.35 |
| ACATACTGG | 1.46 |
| TTTCTGTGC | 0.988 |
| GAACTTACAA | 1.16 |
| CCGAGTGATC | 4.27 |
| CAAGCGAGCC | 1.08 |
| CATCATAAAG | 1.02 |
| CATGTTTCCG | 1.01 |
| TCTTGGGACC | 1.14 |
| ATCGTCTTTT | 0.996 |
| ATGGGACCAT | 1.02 |
| CCTTGGACTG | 1.01 |
| AATCTAGGCG | 1.08 |
| ATATAGAT | 0.984 |
